# From PubChem BioAssay AID624202 (National Center for Advancing Translational Sciences (NCATS), 2012)
# Where “and” joins values, the source holds several entries; their conditions need not be identical. Equal entries are not always repeated. In all, about 380,000 compounds went through this assay and about 4,000 (1.1%) were called active. Inconclusive results, whose numbers are uncertain, are shown with a selection of clear calls. The call rests on the fitted dose curve; in most records, active means well fitted activation curve with a large enough effect; inconclusive means small, poorly fitted or top-dose-only effect; inactive means no such curve, though single readings can be large or run the other way. Potencies beside an inconclusive call are fits to weak or partial responses and may not hold up.
# Assay: qHTS Assay to Identify Small Molecule Activators of BRCA1 Expression; further: nearly all actives have a fitted effect of over 80% in size
# Settings: MCF7-BRCA1-FFLuc reporter, luminescence, 48 h; activation: at 46.1 µM (top of the series), scaled: vehicle 0%, 10 µM genistein 100% unless noted
# Procedure, shortened: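 Using MCF7 cells harboring a BRCA1 firefly luciferase reporter, plated 2 h before compound pinning, the screen measured luminescence after 48 h incubation. Responses were normalized to DMSO and 10 microM genistein, then fitted for concentration-effect.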
# Potency means the concentration at half of the fitted maximal effect; tags describe the fitted curve by direction and shape.
Compound,Potency,activation
C/C(=N\NC(=O)c1cc(-c2ccc(C)s2)[nH]n1)c1ccco1,"inconclusive: 2.82 µM [activator, partial curve, poor fit]",
C/C(=N\Nc1nc(C(C)(C)C)cs1)c1ccccc1,inactive,
Cc1cccc(C)c1OCc1cc(C(=O)N2CCC(c3ccccc3)CC2)no1,"inconclusive: 14.1 µM [activator, partial curve, poor fit]",
O=[N+]([O-])c1ccc(NCc2ccccc2)nc1,"inconclusive: 12.6 µM [activator, partial curve, poor fit]",
CCCS(=O)(=O)N1CCN(C(=O)COc2ccc(-c3ccccc3)cc2)CC1,inactive,
CCOC(=O)c1ccc(N/C=C2\CCCCC2=O)cc1,"inconclusive: 2.51 µM [activator, full curve, poor fit]",
COc1ccc(C2/C=C\CN(C(=O)c3ccc(C)cc3)[C@H](Cc3ccccc3)C(=O)N2Cc2ccc(F)cc2)cc1 (stereo partly specified),inactive,
COc1ccc(N2CCN(C(=O)c3cnn(-c4ccc(F)cc4)c3-n3cccc3)CC2)cc1,inactive,
Cc1ccc(NC(=O)CCC(=O)c2cccs2)nc1,inactive,
CC(C)(C)c1ccc(C(=O)Nc2ccccc2Cl)cc1,"inconclusive: 1.78 µM [activator, full curve, poor fit]",
C=CCNC(=S)Nc1ccc(N(C)C)cc1,inactive,
C/C(=N/NC(=O)c1ccc(C)s1)c1ccncc1,"inconclusive: 20 µM [activator, single point]",
CCc1ccc(-c2cc3c(=O)n(CC(=O)NCCCN4CCN(C)CC4)ncn3n2)cc1,"inconclusive: 1.58 µM [activator, partial curve, poor fit]",
COc1c2ccoc2nc2c(OC)cccc12,active: 25.1 µM,
O=C1/C(=C/c2ccncc2)SC(=S)N1N1CCOCC1,inactive,
CCc1cc(CNC(=O)CCc2nnc(CCCc3ccccc3)o2)on1,"inconclusive: 12.6 µM [activator, partial curve, poor fit]",
CCOC(=O)c1ccc2[nH]c3c(c2c1)CCCCC3=O,active: 3.98 µM,
COc1cccc(CCNC(=O)c2cc(COc3ccc(C)c(C)c3)on2)c1OC,active: 5.62 µM,
Cc1ccc(C(=O)CSc2nnc(N)s2)c(C)c1,active: 4.47 µM,
CC(C)CCNC(=O)/C=C/c1ccc(Br)cc1,"inconclusive: 12.6 µM [activator, partial curve, poor fit]",
COc1cccc(N2CCN(C(=O)CCCn3c(=O)[nH]c4ccc(Br)cc4c3=O)CC2)c1,inactive,
COc1cccc2c1C(=O)/C(=C/c1ccc(N(C)C)cc1)C2,"inconclusive: 10 µM [activator, single point]",
O=C(O)c1ccc(N=Nc2c(-c3ccccc3)[nH]oc2=O)cc1,"inconclusive: 7.94 µM [activator, partial curve, poor fit]",
c1coc(CNc2nc(-c3cccs3)cs2)c1,"inconclusive: 7.94 µM [activator, partial curve, poor fit]",
CCn1c(C)cc(/C=C2/SC(=O)N(C(C)C(=O)OC)C2=O)c1C (stereo unspecified),active: 4.47 µM,
COc1ccc(S(=O)(=O)n2nc(C)c(S(=O)(=O)N3CCCCCC3)c2C)cc1,inactive,

Compound,Potency,activation
CC(=O)NCc1ccc(-c2csc(-c3cccs3)n2)cc1,"inconclusive: 2.82 µM [activator, partial curve, poor fit]",
CC(C)c1ccc(NC(=O)c2ccccc2NC(=O)C2CCCCC2C(=O)O)cc1 (stereo unspecified),"inconclusive: 14.1 µM [activator, partial curve, poor fit]",
O=C(c1cc(-c2ccc(F)cc2)on1)N1CCOCC1,"inconclusive: 1.26 µM [activator, full curve, poor fit]",
COc1ccc(N2C(=O)c3ccccc3NC2c2ccc(OC)c(COc3ccccn3)c2)cc1 (stereo unspecified),active: 2.82 µM and active: 6.31 µM,
O=C(NCCc1cccs1)c1ccc(Cl)cc1,,inconclusive: 48.6% [activator]
COc1ccc2c(c1)C=C/C2=C/c1ccc(N(C)C)cc1,inactive,
O=C(CC(=O)c1ccccc1)Nc1ccccc1,"inconclusive: 2.82 µM [activator, full curve, poor fit]",
C=C1C=C(C(F)F)n2ncc(C(=O)N3CCc4ccccc4C3)c2N1,inactive,
O=C(Nc1ccccc1Br)c1ccc(N2CCCC2=O)cc1,"inconclusive: 5.01 µM [activator, partial curve, poor fit]",
CCCOc1ccc(C(=O)NNC(=S)NC(=O)c2ccccc2)cc1,inactive,
CCn1cnc2cc(NC(=O)c3cccs3)ccc21,active: 12.6 µM,
c1ccc2c(c1)CCN(c1nc3cc4c(cc3s1)OCO4)C2,"inconclusive: 2.51 µM [activator, partial curve, poor fit]",
COC(=O)[C@@]12CCCCN1[C@H](c1ccc(-c3ccc(Cl)c(Cl)c3)c(OC)c1)[C@@H]1C(=O)N(C)C(=O)[C@@H]12,inactive,
O=C(Nc1ccc(Cl)cc1)Nc1cccc(C(=O)O)c1,,inconclusive: -87.1% [activator]
COc1ccc(-c2cc3ccc(OC)cc3cn2)cc1,"inconclusive: 0.501 µM [activator, full curve, poor fit]",
C=CCOC(=O)C1=C(C)NC(SCC(=O)N(CC)CC)=C(C#N)C1c1ccco1 (stereo unspecified),inactive,
CC(=O)N1CCN(c2nc3ccc(Br)cc3s2)CC1,"inconclusive: 3.16 µM [activator, partial curve, poor fit]",
O=C(c1ccccc1)c1c(O)nc(-c2ccccc2)n(-c2ccccc2)c1=O,"inconclusive: 20 µM [activator, partial curve, poor fit]",
COC(=O)CSc1nc2cc(C)ccc2cc1C#N,"inconclusive: 3.16 µM [activator, partial curve, poor fit]",
N/C(=N\N=C\c1cccc(O)c1)c1nonc1N,"inconclusive: 3.16 µM [activator, partial curve, poor fit]",
Cc1ccc(NC(=S)NC(=O)C2CCCC2)cc1C,"inconclusive: 8.91 µM [activator, partial curve, poor fit]",
O=C(c1cc2cc(Cl)ccc2o1)N1CCCC1,"inconclusive: 12.6 µM [activator, partial curve, poor fit]",
Clc1cc2nc[nH]c2cc1Cl,inactive,
O=C(/C=C/c1ccco1)Nc1ccc2c(c1)OCCO2,"inconclusive: 0.631 µM [activator, full curve, poor fit]",
Cc1ccc(NC(=O)NC2CCCCCCC2)cc1,"inconclusive: 1.78 µM [activator, full curve, poor fit]",
COc1ccc(N/C=C/C(=O)c2ccc(C)cc2)c([N+](=O)[O-])c1,"inconclusive: 0.631 µM [activator, full curve, poor fit]",

Compound,Potency,activation
O=c1oc(CCO)cc2ccc(-c3ccc4[nH]ccc4c3)cc12,"inconclusive: 7.94 µM [activator, partial curve, poor fit]",
Cc1cccc2sc(NNC(=O)c3cc(=O)c4ccccc4o3)nc12,inactive,
Fc1ccccc1CSc1nc2ncccc2[nH]1,"inconclusive: 7.94 µM [activator, partial curve, poor fit]",
CC(NCC(O)COc1ccc2ccccc2c1)c1ccccc1 (stereo unspecified),inactive,
Cc1cccc2c1NC(=O)C2=O,inactive,
Cc1occc1C(=O)NNC(=O)c1ccccc1Br,inactive,
C#Cc1ccc([C@H]2C=C(C(=O)N3CCN(Cc4ccc5c(c4)OCO5)CC3)O[C@@H](OCc3ccc(CO)cc3)C2)cc1,inactive,
CC(=O)Nc1ccc2c(c1)Cc1ccc(Cl)cc1-2,"inconclusive: 7.94 µM [activator, partial curve, poor fit]",
CC(=NNC(=S)N1CC2CCC(CC2)C1)c1ccncn1,,inconclusive: -94.8% [activator]
Cc1ccc(/C=N/NC(=O)c2cc(-c3ccccc3)nc3ccccc23)o1,inactive,
O=C(CCCc1c[nH]c2ccccc12)N1CCCCCC1,"inconclusive: 12.6 µM [activator, partial curve, poor fit]",
Cn1c(N)c(S(=O)(=O)N2CCN(c3ccccc3Cl)CC2)c(=O)n(C)c1=O,inactive,
N/C(=N\OC(=O)/C=C/c1ccccc1Cl)c1ccncc1,"inconclusive: 1.58 µM [activator, partial curve, poor fit]",
O=C(NCCc1nc2ccccc2n1CCCOc1ccccc1Cl)C1CCCCC1,inactive,
Cc1c(Br)c(C(=O)N2CCc3ccccc32)nn1C,"inconclusive: 2.51 µM [activator, full curve, poor fit]",
Clc1cc(Cl)c2nc(N3CCOCC3)sc2c1,active: 11.2 µM,
C=CCN(C(=O)c1oc2c(Cl)cc(C)cc2c1C)C1CCS(=O)(=O)C1 (stereo unspecified),"inconclusive: 8.91 µM [activator, partial curve, poor fit]",
O=C1NCCN(Cc2ccc(Cl)c(F)c2)C1CC(=O)N1CCCCO1 (stereo unspecified),"inconclusive: 14.1 µM [activator, partial curve, poor fit]",
CN(C)c1ccc(/C=C/c2ccncc2)cc1,active: 7.94 µM,
O=C(CSc1nnc2ccccn12)Nc1ncc(Cl)cc1Cl,active: 10 µM,
Cc1cc(OCCN2CCOCC2)ccc1Cl,active: 12.6 µM,
CCOc1ccc(CN(C(=O)c2oc3ccccc3c2C)C2CCS(=O)(=O)C2)cc1 (stereo unspecified),inactive,
COc1cccc(-c2ccnc3c(-c4ccccc4)c(C)nn23)c1,active: 11.2 µM,
Cn1ccnc1SCC(=O)Nc1ccc2ccccc2c1,"inconclusive: 2.51 µM [activator, partial curve, poor fit]",
